This is one part of the list.
How the values were obtained:
Experiment in all cases: glycan array binding signal (z-score within array); higher = stronger binding
Conditions in all cases: glycan notation: IUPAC condensed, linker removed
[1] = target: Fuc(a1-2)[Gal(a1-3)]Gal(b1-4)GlcNAc(b1-2)Man(a1-3)[Fuc(a1-2)[Gal(a1-3)]Gal(b1-4)GlcNAc(b1-2)Man(a1-6)]Man(b1-4)GlcNAc(b1-4)GlcNAc
Outline: (§1)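 Arrays were curated from the Consortium for Functional Glycomics database, 3228 in total, and kept only where the protein sequence was available. Binding is expressed as a within-array Z-score. This score was averaged across arrays of the same protein sequence at different concentrations or buffers and across linkers, and negative values can be read as non-binding.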

[2] = target: Fuc(a1-2)[Gal(a1-3)]Gal(b1-4)[Fuc(a1-3)]GlcNAc
Outline: as §1

[3] = target: Fuc(a1-2)[Gal(a1-4)]Gal(b1-4)GlcNAc
Outline: as §1

[4] = target: Fuc(a1-2)[GalNAc(a1-3)]Gal
Outline: as §1

[5] = target: Fuc(a1-2)[GalNAc(a1-3)]Gal(b1-3)GlcNAc
Outline: as §1

[6] = target: Fuc(a1-2)[GalNAc(a1-3)]Gal(b1-3)GlcNAc(b1-2)Man(a1-3)[Fuc(a1-2)[GalNAc(a1-3)]Gal(b1-3)GlcNAc(b1-2)Man(a1-6)]Man(b1-4)GlcNAc(b1-4)GlcNAc
Outline: as §1

[7] = target: Fuc(a1-2)[GalNAc(a1-3)]Gal(b1-4)Glc
Outline: as §1

[8] = target: Fuc(a1-2)[GalNAc(a1-3)]Gal(b1-4)GlcNAc
Outline: as §1

[9] = target: Fuc(a1-2)[GalNAc(a1-3)]Gal(b1-4)GlcNAc(b1-2)Man(a1-3)[GalNAc(a1-3)[Fuc(a1-2)]Gal(b1-4)GlcNAc(b1-2)Man(a1-6)]Man(b1-4)GlcNAc(b1-4)GlcNAc
Outline: as §1

[10] = target: Fuc(a1-2)[GalNAc(a1-3)]Gal(b1-4)GlcNAc(b1-3)Gal(b1-4)GlcNAc
Outline: as §1

[11] = target: Fuc(a1-2)[GalNAc(a1-3)]Gal(b1-4)GlcNAc(b1-3)Gal(b1-4)GlcNAc(b1-3)Gal(b1-4)GlcNAc
Outline: as §1

[12] = target: Fuc(a1-2)[GalNAc(a1-3)]Gal(b1-4)[Fuc(a1-3)]GlcNAc
Outline: as §1

[13] = target: Fuc(a1-2)[GalNAc(a1-4)]Gal(b1-4)GlcNAc
Outline: as §1

[14] = target: Fuc(a1-2)[GalNAc(b1-3)]Gal
Outline: as §1

Fuc(a1-3)GlcNAc = target: Fuc(a1-3)GlcNAc
Outline: as §1

[15] = target: Fuc(a1-3)[Gal(b1-4)]Glc6S
Outline: as §1

[16] = target: Fuc(a1-3)[Gal(b1-4)]GlcNAc
Outline: as §1

[17] = target: Fuc(a1-3)[Gal(b1-4)]GlcNAc(b1-2)Man(a1-3)[Fuc(a1-3)[Gal(b1-4)]GlcNAc(b1-2)Man(a1-6)]Man(b1-4)GlcNAc(b1-4)GlcNAc
Outline: as §1

[18] = target: Fuc(a1-3)[Gal(b1-4)]GlcNAc(b1-2)Man(a1-6)[Gal(b1-4)GlcNAc(b1-2)Man(a1-3)]Man(b1-4)GlcNAc(b1-4)GlcNAc
Outline: as §1

[19] = target: Fuc(a1-3)[Gal(b1-4)]GlcNAc(b1-3)Gal(b1-3)[Fuc(a1-4)]GlcNAc
Outline: as §1

[20] = target: Fuc(a1-3)[Gal(b1-4)]GlcNAc(b1-4)Gal(b1-4)[Fuc(a1-3)]GlcNAc
Outline: as §1

[21] = target: Fuc(a1-3)[Gal(b1-4)]GlcNAc(b1-4)Gal(b1-4)[Fuc(a1-3)]GlcNAc(b1-4)Gal(b1-4)[Fuc(a1-3)]GlcNAc
Outline: as §1

[22] = target: Fuc(a1-3)[Gal(b1-4)]GlcNAc6S
Outline: as §1

[23] = target: Fuc(a1-3)[Gal3S(b1-4)]Glc6S
Outline: as §1

[24] = target: Fuc(a1-3)[Gal3S(b1-4)]GlcNAc
Outline: as §1

[25] = target: Fuc(a1-3)[Gal3S(b1-4)]GlcNAc6S
Outline: as §1

[26] = target: Fuc(a1-3)[GalNAc(b1-4)]GlcNAc
Outline: as §1

Fuc(a1-4)GlcNAc = target: Fuc(a1-4)GlcNAc
Outline: as §1

Fuc(b1-3)GlcNAc = target: Fuc(b1-3)GlcNAc
Outline: as §1

Gal(a1-2)Gal = target: Gal(a1-2)Gal
Outline: as §1

B1: DETC sTCR (Mus musculus) (protein)
chain: LDVYLEPVAKTFTVVAGDPASFYCTVTGGDMKNYHMSWYKKNGTNALFLVYKLNSNSTDGGKSNLKGKINISKNQFILDIQKATMKDAGTYYCGSDIGGSSWDTRQMFFGTGIELFVEPKSQPPAKPSVFIMKNGTNVACLVKDFYPKEVTISLRSSKKIVEFDPAIVISPSGKYSAVKLGQYGDSNSVTCSVQHNSETVHSTDFEPYANSFNNEKLPEPENDTQISEPCSSADLVPRGSTTAPSAQLKKKLQALKKKNAQLKWKLQALKKKLAQHHHHHHDSWISQDQLSFTRRPNKTVHISCKLSGVPLHNTIVHWYQLKEGEPLRRIFYGSVKTYKQDKSHSRLEIDEKDDGTFYLIINNVVTSDEATYYCACWDSSGFHKVFAEGTKLIVIPSDKRLDADISPKPTIFLPSVAETNLHKTGTYLCLLEKFFPDVIRVYWKEKDGNTILDSQEGDTLKTNDTYMKFSWLTVPERAMGKEHRCIVKHENNKGGADQEIFFPSIKKVAVSTKPTTCSSADLVPRGSTTAPSAQLEKELQALEKENAQLEWELQALEKELAQLNDIFEAQKIEW
[1]
  glycan array binding signal (z-score): -0.402
[2]
  glycan array binding signal (z-score): -0.517
[3]
  glycan array binding signal (z-score): -0.549
[4]
  glycan array binding signal (z-score): -0.566
[5]
  glycan array binding signal (z-score): -0.522
[6]
  glycan array binding signal (z-score): -0.395
[7]
  glycan array binding signal (z-score): -0.028
[8]
  glycan array binding signal (z-score): 2.43
[9]
  glycan array binding signal (z-score): -0.566
[10]
  glycan array binding signal (z-score): -0.268
[11]
  glycan array binding signal (z-score): -0.187
[12]
  glycan array binding signal (z-score): -0.576
[13]
  glycan array binding signal (z-score): 0.223
[14]
  glycan array binding signal (z-score): -0.646
Fuc(a1-3)GlcNAc
  glycan array binding signal (z-score): -0.519
[15]
  glycan array binding signal (z-score): -0.581
[16]
  glycan array binding signal (z-score): -0.253
[17]
  glycan array binding signal (z-score): -0.52
[18]
  glycan array binding signal (z-score): 2.3
[19]
  glycan array binding signal (z-score): -0.531
[20]
  glycan array binding signal (z-score): -0.473
[21]
  glycan array binding signal (z-score): 0.623
[22]
  glycan array binding signal (z-score): -0.619
[23]
  glycan array binding signal (z-score): -0.071
[24]
  glycan array binding signal (z-score): -0.473
[25]
  glycan array binding signal (z-score): -0.478
[26]
  glycan array binding signal (z-score): 0.649
Fuc(a1-4)GlcNAc
  glycan array binding signal (z-score): -0.607
Fuc(b1-3)GlcNAc
  glycan array binding signal (z-score): 0.011
Gal(a1-2)Gal
  glycan array binding signal (z-score): -0.569

Reference: the supplement of paper PMC8728848
